Test results taken from PubChem BioAssay AID1159614 (National Center for Advancing Translational Sciences (NCATS), 2016).
Hit rate of the full screen: of about 45,000 compounds, about 65 (0.1%) were called active. Calls come from the whole dose curve; as a rule, active = well fitted activation curve with a large enough effect; inconclusive = small, poorly fitted or top-dose-only effect; inactive = no such curve, though single readings can be large or run the other way. The list shows a part of the results.

target: Galactocerebrosidase (Homo sapiens) (UniProt P54803); assay: A Novel Cell-Based Assay to Identify Small Molecules for B -Galactocerebrosidase; settings: 145M-Twi-hGALC-G270D cells (Twitcher mouse brain line with human GALC G270D), HMU-beta-Gal fluorescence, 48 h; series mostly up to 57.5 µM; activation: at the top concentration; note: 0% is about no effect; nearly all actives have a fitted effect of over 65% in size
Chain of UniProt P54803 (P54803 whole entry, looked up): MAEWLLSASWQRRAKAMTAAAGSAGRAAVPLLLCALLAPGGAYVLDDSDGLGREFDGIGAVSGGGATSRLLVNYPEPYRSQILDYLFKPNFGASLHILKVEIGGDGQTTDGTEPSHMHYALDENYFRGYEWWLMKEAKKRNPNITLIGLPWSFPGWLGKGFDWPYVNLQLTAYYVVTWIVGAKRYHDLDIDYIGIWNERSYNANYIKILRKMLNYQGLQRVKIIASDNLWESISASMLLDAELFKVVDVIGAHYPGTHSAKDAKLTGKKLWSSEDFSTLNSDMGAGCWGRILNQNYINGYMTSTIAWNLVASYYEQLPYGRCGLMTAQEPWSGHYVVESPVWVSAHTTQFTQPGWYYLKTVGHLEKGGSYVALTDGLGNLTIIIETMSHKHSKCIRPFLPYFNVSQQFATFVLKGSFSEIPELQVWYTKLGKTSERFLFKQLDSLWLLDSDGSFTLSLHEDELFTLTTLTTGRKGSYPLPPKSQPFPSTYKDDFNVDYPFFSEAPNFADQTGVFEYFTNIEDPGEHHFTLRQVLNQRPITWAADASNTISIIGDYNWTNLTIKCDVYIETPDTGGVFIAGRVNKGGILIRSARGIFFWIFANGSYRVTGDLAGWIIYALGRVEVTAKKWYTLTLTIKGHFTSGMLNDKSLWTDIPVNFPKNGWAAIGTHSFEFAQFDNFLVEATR
How it was run: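 Live 145M-Twi cells (Twitcher mouse brain-derived, GALC-null) stably expressing human GALC-G270D, with a wild-type GALC line, were compound-treated. Residual GALC activity was then read as fluorescence from 0.1 mM final HMU-β-gal at pH 5.2; higher signal means activation.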

activation, inactive:
CCOc1ccc(CNC(=O)c2cnc3c(C)cccn3c2=O)cc1 -15.4%
CCOC(=O)c1ccccc1NC(=O)c1cnn(-c2ccc(OC)cc2)c1C1CCN(C(=O)OC(C)(C)C)CC1 3.42%
Cc1ccc2c(c1)c(=O)c1ccccc1n2CCCC(=O)Nc1ccc(Cl)cc1C -9.59%
CCOC(=O)c1cnc(NCc2ccc(Cl)cc2)c2ccccc12 -11%
O=C(Cc1ccc(F)cc1)NCCc1csc(-c2ccc(C(F)(F)F)cc2)n1 -29.7%
Cc1ccc2[nH]c3c(=O)n(CC(=O)N(C)Cc4ccccc4)ncc3c2c1 -6.96%
Cn1c(CN2CCCCC2)nc2cc(NC(=O)c3ccc(Cl)cc3)ccc21 -8.61%
CCOc1ccc(CCNC(=O)c2nn(-c3ccc(OC)cc3)c(=O)c3c2c2ccccc2n3C)cc1OCC -3.76%
CCN(CC)C(=O)c1ccccc1NC(=O)c1cccc(S(=O)(=O)N2CCC(C)CC2)c1 -1.38%
O=C(NC1CCCCC1)/C(=C/c1ccc(Cl)cc1)NC(=O)c1ccccc1 -4.55%
Cc1ccc(CNC(=O)C2CCN(c3ncnc4c3nc3n4CCCCC3)CC2)cc1 -7.91%
Cc1ccc(NC(CNS(=O)(=O)c2ccc(Cl)cc2)c2ccccc2)cc1 (stereo not drawn) -8.91%
CCC(=O)N1c2ccc(S(=O)(=O)N3CCN(c4ccccc4Cl)CC3)cc2CC1C (stereo not drawn) -1.28%
CCOC(=O)C1CCCN(S(=O)(=O)c2cc(-c3cc(C)no3)ccc2C)C1 (stereo not drawn) -5.47%
COc1cccc(CNC(=O)c2ccc(CS(=O)Cc3ccc(Cl)cc3)o2)c1 (stereo not drawn) 5.36%
Cc1ccc(C(=O)CSc2nnc3ccc4ccccc4n23)cc1 -7.46%
N#Cc1cc2c(=O)n3ccccc3nc2n(-c2nnc(SCc3ccccc3)s2)c1=O -10.1%
O=C(CCCn1c(=O)c2cccn2c2cccnc21)Nc1ccccc1Br -7.33%
O=c1oc2ccc3ccccc3c2cc1-c1nnc(Nc2cccc(F)c2)s1 -8.59%
Cc1ccccc1CNC(=O)c1ccc2c(c1)N(Cc1ccccc1)CCS2 -13.8%
Cc1cccc(C)c1Nc1c(-c2ccccc2O)nc2ncccn12 -3.59%
CCCCCCCCCCCCCCCCCC(=O)O -7.18%
CCOC(=O)c1c(NC(=O)/C=C/c2ccc(OCC)cc2)sc2c1CCC2 -12.7%
CCCCn1c(=O)c2oc3ccccc3c2n(CC(=O)Nc2ccccc2OC)c1=O -0.878%
Cc1ccc(CNC(=O)Cn2cc(C(=O)c3ccc(Cl)cc3)c(=O)c3ccc(C)nc32)cc1 -17.7%
CCN1CCOC(=O)C1CC(=O)Nc1cc(Cl)ccc1OC (stereo not drawn) -6.49%
O=C(CCn1c(=O)c2cccn2c2cccnc21)N1CCN(c2ccc(Cl)cc2)CC1 -12%
Cc1cccc(OCCCCn2c(C3CC(=O)N(c4ccc(C)cc4C)C3)nc3ccccc32)c1 (stereo not drawn) -1.4%
Cc1ccc(Cl)cc1-n1ncc2c(N3CCC(C(N)=O)CC3)ncnc21 -0.722%
CNc1oc(/C=C/c2cc(OC)c(OC)c(OC)c2)nc1C#N -7.79%
CCCCNC(=O)[C@@H](c1ccccc1)N1Cc2ccccc2C1=O -8.6%
CCc1ccc(C2=C(C)C(N3CCC(C(=O)NCc4ccc(C)o4)CC3)=NS2(=O)=O)cc1 -2.99%
Cc1nn(CC(=O)NCc2ccccc2Br)c(=O)c2cc3occc3n12 2.12%
Cc1ccc(S(=O)(=O)N2CCCc3cc(NC(=O)c4c(F)cccc4F)ccc32)cc1 -10.8%
Cc1ccc(-n2c(=O)c3ccc(C(=O)NCc4ccccc4Cl)cc3n(CC(N)=O)c2=O)cc1 -26.8%
Cc1ccccc1C(=O)Nc1ccc(C(=O)OCc2cc(=O)n3c4c(sc3n2)CCCC4)cc1 -14.1%
Cc1cccc(CNC(=O)c2cnc3sc(N4CCOCC4)nn3c2=O)c1 -6.33%
Cc1ccc(C(=O)Nc2ccc(F)cc2)cc1S(=O)(=O)N1CCOCC1 -13.2%
O=C(OCC1CCCO1)c1ccc2c(c1)N(Cc1ccccc1F)C(=O)c1ccccc1S2(=O)=O (stereo not drawn) 8.29%
CCOc1ccccc1NC(=O)CSc1nccn1Cc1ccc(F)cc1 -10.7%
CCNC(=O)CC1C(=O)N(c2ccc(F)cc2)C(=O)N1Cc1ccc(C)cc1 (stereo not drawn) -13.2%
Cc1ccc(Cl)cc1N(C)C(=O)c1cc2ccc3cccnc3c2[nH]1 -9.59%
CC(=O)OC/C=C(C)/C=C/C=C(C)/C=C/C1=C(C)CCCC1(C)C -7.32%
CCCCOc1ccc(C(=O)NCCc2csc3nc(-c4ccccc4F)nn23)cc1 -10.4%
COc1ccccc1CNC(=O)C(Cc1ccccc1)NS(=O)(=O)c1ccc2c(c1)CCN2C(C)=O (stereo not drawn) -8.77%
Cc1ccccc1NC(=O)c1ccc(CNS(=O)(=O)c2ccc3c(c2)C(C)(C)C(=O)N3C)cc1 2.72%
O=C(NCc1ccccn1)c1nn(-c2ccccc2Cl)nc1CO -10.7%
Cc1cc(NC(=O)CSc2ncc(C(=O)Nc3ccccc3)c(=O)n2C)no1 -5.41%
CCN(CC)C(=O)C1=C(C)Nc2nc3ccccc3n2C1c1ccc(Cl)cc1 (stereo not drawn) -11.7%
CSc1ncc(C(=O)Nc2cccc(Cl)c2C)c(-c2ccccc2)n1 -7.13%
CSc1ccc(CCNC(=O)c2ccc3c(c2)c(C)c(C)n3Cc2ccc(F)cc2)cc1 -9.54%
CCn1c(CN2CCN(C)CC2)nc2cc(NC(=O)c3cc(OC)c(OC)c(OC)c3)ccc21 -14.9%
CCOc1ccccc1C(=O)NCC(c1ccc(N(C)C)cc1)N1CCCC1 (stereo not drawn) -12.9%
COc1ccc(CCNC(=O)c2cc3c(=O)[nH]c4ccc(C)cc4c3s2)cc1OC -18.8%
CCN(CC)C(=O)C1CCCN(c2ncnc3c2nc2n3CCCCC2)C1 (stereo not drawn) -22%
CC(=O)c1cccc(NC(=O)c2cc(-c3ccc4c(c3)OCCO4)on2)c1 -0.748%
CCOC(=O)CNC(=O)Cn1nc(N2CCN(c3ccccc3)CC2)ccc1=O -2.22%
COCCn1c(CNC(=O)c2cc(OC)c(OC)c(OC)c2)nc2cccnc21 8.61%
COC(=O)c1ccc(NC(=O)c2c(NCc3ccc(OC)c(OC)c3)sc3c2CCCC3)cc1 -12.5%
COC(=O)c1ccccc1NC(=O)CCCS(=O)(=O)c1nc(-c2ccccc2OC)cc(C(F)(F)F)n1 -10.8%
CCOc1ccccc1CNC(=O)CN1C(=O)C2CCCCN2c2ccc(C(=O)N(C)C)cc21 (stereo not drawn) -22.8%
CCc1ccccc1NC(=O)c1ccc2[nH]c(C)c(C)c2c1 -3.64%
Cc1oc2ncnc(N3CCCCC3)c2c1C(=O)Nc1cccc(F)c1 9.59%
